# Assay results taken from the RNAGym collection of RNA variant scans (doi:10.1073/pnas.2313332121).
# Variants at the background level are over-represented here.
# B1: TPR 5TU (parent)
# chain: GGAUCUUCUCGAUCUAACAAAAAAGACAAAUCUGCCACAAAGCUUGAGAGCAUCUUCGGAUGCAGAGGCGGCAGCCUUCGGUGGCGCGAUAGCGCCAACGUUCUCAACUAUGACACGCAAAACGCGUGCUCCGUUGAAUGGAGUUUAUCAUG
# Variants of: B1
# Assay: polymerase ribozyme fitness, log enrichment relative to wild type (log ratio); higher = more active; in vitro selection for triplet polymerase activity
# How it was run: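 Mutant libraries for each subunit of a heterodimeric triplet polymerase ribozyme were made by PCR and then transcribed. Each library underwent one round of in vitro selection in triplicate: annealing with a biotinylated primer, the partner subunit and triplets, frozen incubation at −7 °C, gel excision of extended constructs, streptavidin-bead capture and RT-PCR. Input and output libraries were Illumina-sequenced, and only genotypes with ≥10 input reads and ≥1 read per output were kept. Fitness is the logarithm, base 2, of genotype enrichment over wild-type enrichment, computed from inverse-variance-weighted replicate averages.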
row,Variant,polymerase ribozyme fitness (log ratio)
1,GGAUCUUCUCUAUCUAACAAAAAAGACAAUUCUGCCACAAAGCUUGACAGCAUCUUCGGAUGCAGAGGCGGCUGCCUUCGGUGGCGCGAUUGCGCCAACGUUCUCAACUAUGAUACGCAAAACGCGUGCUCGGUUGAAUGGAGUUUAUCAUG [G11U A30U G48C A73U A91U C114U C132G],≤ -4.2
2,GGAUCUUCUCGCUCUACCAAAAAAGACACAUCUGCCACAAAGCUUGAGCGGAUCUUCGGCUGCAGAGGCGGCAGCCUUCGGUGGCGCGUUAGGGCCAACGUUCUCAACUAUUACAGGCAAAACGCGUGCUCCGUAGAAUGGAGUUUACCAUG [A12C A17C A29C A49C C51G A60C A89U C93G G112U C116G U135A U148C],≤ -4.2
3,GGAUCUUCUCUAUCUAACAAAAAAGACAAAUCUGCCACAAAGCUUGAAAGCAUCUUCGGAUGCAGAGGCGGCAGCCUUCGGUGGAGCGUUAGCGCCAUCGUUCUCAACUAUGGCACACAAAACGCGUGCUCCGUUGAAUGGAGUUUAUCAUG [G11U G48A C85A A89U A98U A113G G117A],≤ -4.2
4,GGAUCUUCUCCAUCUAACAAAAAAGACAAAUCUCCCACAAAGCUUGAGAGCAUCUUCGGAUGCAGAGGCGGCAGCCUUCGGUAGCGCGAUUGCGCCAACGUCCUCAACUAUUUCACGCAAAACGCGUGCUCCGUUGAAUGGCGUUUAUCAUG [G11C G34C G83A A91U U102C G112U A113U A142C],≤ -4.2
5,GGAUCUUCUCUAUCUAACAAAAAAGACAAAUCUGCCACAAAGCUUGAGAGGGUCUUCGGAUGCAGAGGCGGCAGCCUUCGGUGGCGCGAUAGCGCCAACGUUCUCAACUAUGACACGAAAACCGCGUGCUCCGUUGAAUGGAGUUUAUCAUG [G11U C51G A52G C118A A122C],≤ -4.2
6,GGAUCUUCUCUAGCUAACAAAAAAGACAAAUCUGCCACAAAGCUUGAGAGGAUCUUCGGAUGCAGAGGCGGCAGCCUUCGGUGGUGCAAUAGAGCCUACGUUCUCAACUAUGAUACGCAAAACGCGUGCUCCGUUGAAUGGAAUUUAUCAUG [G11U U13G C51G C85U G88A C93A A97U C114U G143A],≤ -4.2
7,GGAUCUUCUCCAGCUAACAAAAAAGACAAAUCUGCCACAAAGCUUGAGAGCAGCAUCGGAUGCAGAGGCGGCAGCCUUCGGUGGCGCGAUAUCGCCAACGUUCUCAACUAUGACACGCAAAACGCGUGCUCCGUUGAAUGGAGUUUAUCAUG [G11C U13G U53G U55A G92U],≤ -4.2
8,GGAUCUUCUCCAUCUAACAAAAAAGACAAAUCUGCCACAAAGCUUGAGAGCAUCUUCGGAUGCAGAGGCGGCAGCCUUCGGUGGCGCGAUAGCGUCAACGUUCUCAACUAGCACACGCAAAACGCGUGCUCCGUUGAAUGGCGUUUAUCAUG [G11C C95U U111G G112C A142C],≤ -4.2
9,GGAUCUUCUCGCUCUUACAAAGAAGACAAAUCUGCCACAAAGCUUGACAGCAUCUUUGGAUGCAGAGGAGGCAGCCUUCGGUGGCGCGAUACCGCCAACGUUAUCAACUAUGACACGAAAAACGCGUGCUCAGUUGAAUGGAGUUUAUCAUG [A12C A16U A22G G48C C57U C69A G92C C103A C118A C132A],≤ -4.2
10,GGAUCUUCUCUAUCUAACAAAAAAGACAAAUCAGCCACAAAGCUUGAGAGCAUCUUCGGAUGCAGAGGCGGCAGUCUUCGGUGGCGUGAUAGCGCCAACGUUCUCAACUAUGACACGCAAAACGCGUACUCCGUUGAAUGGAGUUUACCAUG [G11U U33A C75U C87U G128A U148C],≤ -4.2
11,GGAUCUUCUCUAUUUAACAAAAAAGACAAAUCUGACACAAAGCUAGAGAGCAUCUUCGGAUGCAGAGGCGGCAGCCUUCGGUGGCUCGAUAGCGCCAACGUUCUCAACUAUGACACGCAAAACGUGUGCUCCGUUGAAUGGAGUUUAUCAUG [G11U C14U C35A U45A G86U C125U],≤ -4.2
12,GGAUCUUCUCUAUCUAACAAAAAAGACAAAUCUGCCACAAAGCUUGAGAGCAUCUUCGGAUGCAGAGGCGGCAGCCUUCGGUGGCGCGUUAACGCCAACGUUCACAACUAUGACACGCAAAACGCGUGCUCCGUUGAAUAGAGGUUAUCAUG [G11U A89U G92A U104A G140A U144G],≤ -4.2
13,GGAUCUUCUCCAUCUAACAAAAAAGACAAAUCUGCCACAAAGCUUGAGAGCAUCUUCGGAUGCAGAGGCGGCAGCCGUCGGUGGCGCGAUUGCGCCAACGUUCUCAACUAUGACACGCAAAACGCGUGCUCCGUUGAAUGGAGUUUAUCAUG [G11C U77G A91U],≤ -4.2
14,GGAUCUUCUCUAUCUAACAACAAAGACAAAUCUGCCACAAAGGUUGAGAGCAUCUGCGGAUCCAGAGGCGGCAGCCUUCGGUGGCGCGAUAACGCCAACGUUCUCAACUAUGACACGCAAAACGCGUGCUCCGUUGAAUGCAGUUUAUCAUG [G11U A21C C43G U56G G62C G92A G141C],≤ -4.2
15,GGAUCUUCUCCAUCUAACAAAAAAGACAAAUCUGCCACAAAGCUUGAGAGCAGCUUCGGAUGCAGAGGCGGCAGCCUUCGGUGGCGCGAUAGCGGCAACGUUCUCAACUAUGACACGCAAAACGCGUUCUCCGUUGAAUGGAGUUUAUCAUG [G11C U53G C95G G128U],≤ -4.2
16,GGAUCUUCUCUAUCUAACAAAAAAGACAAUUCUGCCACAAAGCUUGGGAGCAUCUUCGGAUGCAGAGGCGGCAGCCUUCGGUGGUGCGAUAGCGCCAACGUUCUCAACUAUGACACGCAAAACGUGUGCUCCGUUGAAUGAAGUUUAUCAUG [G11U A30U A47G C85U C125U G141A],≤ -4.2
17,GGAUCUUCUCUAUCUAACAAAAAAGACAAAUCUGCCACAAAGCUUGAGAGCAUCUUCGGAUGCAGAGGCGGCAGCCUUCGGUGGCGCGACAGCGCCAACGUUCUCAACUAUGACACGCAAAACGCGCGCUCCGUUGAAUGGAGUUUAUCAUG [G11U U90C U127C],≤ -4.2
18,GGAUCUUCUCUAUCUAACAAAAAAGACAAAUCUGCCACAAAGCUUGAGAGCAUCUUGGGAUGCAGAGGCGGCAGCCUUCGGUGGCGCGAUAGCGCCAACGUUCUCAACUAUGGCACGCAAAACGCGUGCUCCGUUGAAUGGAGUUUAUCAUG [G11U C57G A113G],≤ -4.2
19,GGAUCUUCUCUAUCUAACAAAAAAGACAAAUCUGCCACAAAGCUUGAGAGCAUCUUCGGAUGCAGAGGCGUCAGCCUUCGGUGGCGCGAUAGCGCCAACGUUUUCAACUAUGACACGCAAAACGCGUGCUCCGUUGACUUGAGUUUAUCAUG [G11U G71U C103U A138C G140U],≤ -4.2
